According to PubChem BioAssay AID995 (National Center for Advancing Translational Sciences (NCATS), 2007):
In all, about 72,000 compounds went through this assay and about 710 (0.99%) were called active. Inconclusive results, whose numbers are uncertain, are shown with a selection of clear calls. The call rests on the fitted dose curve; in most records, active means well fitted inhibition curve with a large enough effect; inconclusive means small, poorly fitted or top-dose-only effect; inactive means no such curve, though single readings can be large or run the other way. Potencies of inconclusive entries are left out as doubtful fits.

Assay: qHTS Assay for Inhibitors of the ERK Signaling Pathway using a Homogeneous Screening Assay; further: nearly all actives have a fitted effect of over 55% in size
Details: HEK293-V1b, vasopressin-stimulated pERK AlphaScreen; activity, negative = inhibition: at 57.5 µM (top of the series) unless noted
How it was run: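 V1b-HEK293 cells; cpd 30 min 37C; 25 nM vasopressin 5 min; lyse 10 min; AlphaScreen beads 5 hr RT. Normalized to DMSO basal and 25 nM vasopressin; AC50 by Hill fit.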
On the % scale 0 is the no-effect control and ±100 the full control effect; potency means the concentration at half of the fitted maximal effect; tags describe the fitted curve by direction and shape.

Compound	Potency	activity, negative = inhibition
CCOC(=O)c1ccc(NC(=O)c2cccc(S(=O)(=O)N3CCOCC3)c2)cc1	active: 5.01 µM	–
Cc1cccc(S(=O)(=O)NCCC(=O)OC(C)C(=O)NC(=O)NC2CCCCC2)c1 (centres undefined)	inconclusive [inhibitor, single point]	–
O=C1CN(CC(=O)N2CCOCC2)c2ccccc2O1	inconclusive [inhibitor, full curve, poor fit]	–
O=c1[nH]c(SCc2ccccc2[N+](=O)[O-])nc2nc[nH]c12	inconclusive [inhibitor, partial curve]	–
COc1cc(C(=O)Nc2ccc3c(c2)OCCO3)ccc1OC(F)F	inconclusive [inhibitor, partial curve]	–
COC(=O)c1ccc2c(c1)SC1=C(CCCC1=O)N2	inconclusive [inhibitor, single point]	–
O=C1c2ccccc2C(Nc2ccc3c(c2)OCCO3)N1Cc1ccco1 (centres undefined)	active: 25.1 µM	–
C[C@@H](C(=O)Nc1ccc2ccccc2c1)[C@H]1C[C@]1(C)[C@H](NC(=O)c1cnccn1)c1ccccc1	inactive	–
COc1c(CC(=O)c2cc3c(cc2O)OC(C)(C)C(O)C3)ccc2c1C=CC(C)(C)O2 (centres undefined)	inconclusive [inhibitor, single point]	–
Cc1cccc(N2CCN(C(=O)c3ccc(CS(=O)(=O)c4ccccc4C)o3)CC2C)c1 (centres undefined)	inconclusive [inhibitor, single point]	–
Cn1c(N)c(C(=O)CSc2ccc3c(c2)OCCO3)c(=O)n(C)c1=O	inconclusive [inhibitor, full curve, poor fit]	–
COC(=O)c1ccccc1NC(=O)c1ccco1	inconclusive [inhibitor, single point]	–
COc1ccc(Br)cc1C(=O)Nc1cccc(NC(=O)c2ccco2)c1	inconclusive [inhibitor, partial curve]	–
O=C(Nc1ccc(-c2nc3ccccc3o2)c(O)c1)c1cc(-n2cnnc2)ccc1Cl	active: 6.31 µM	–
NC(CCC(=O)N[C@@H](CS)C(=O)NCC(=O)O)C(=O)O (some centres undefined)	inactive	–
CC1(C)NC(=O)N(CC(O)COc2ccc(-c3ccc(C#N)cc3)cc2)C1=O (centres undefined)	inconclusive [inhibitor, single point]	–
COc1ccc(NC(=O)c2cc3n(n2)C(C(F)(F)F)CC(c2ccc4c(c2)OCO4)N3)cc1OC (centres undefined)	inconclusive [inhibitor, partial curve]	–
O=C(c1cccc(S(=O)(=O)NCCOc2ccccc2)c1)N1CCN(c2ncccn2)CC1	inconclusive [inhibitor, single point]	–
Cc1c(C#N)c(N=CN(C)C)c(C(=O)c2ccccc2)n1-c1ccccc1	inconclusive [inhibitor, full curve, poor fit]	–
C=CCSC1=N/C(=C\c2ccc3c(c2)OCO3)C(=O)S1	inactive	–
C#CCOC(=O)NC(/C=C/CCCC)c1ccccc1 (centres undefined)	inactive	–
COc1ccc(/C=C/C(=O)c2ccc(O)cc2O)cc1	inconclusive [inhibitor, single point]	–
CCc1c(C)nc(N)nc1OCC(F)(F)C(F)F	inconclusive [inhibitor, partial curve]	–

Compound	Potency	activity, negative = inhibition
O=c1c(-c2ccc(Cl)cc2)nc2cncnc2n1Cc1ccc(F)cc1	inconclusive [inhibitor, single point]	–
CCc1c(C)nc2ncnn2c1N1CCC(C(=O)NCc2ccc3c(c2)OCO3)CC1	inconclusive [inhibitor, partial curve]	–
CN1C(=O)c2ccccc2C(C(=O)NCc2ccco2)C1c1c[nH]c2ccccc12 (centres undefined)	inconclusive [inhibitor, single point]	–
Cc1cc(NCCN2CCOCC2)n2ncc(-c3ccccc3)c2n1	inactive	–
O=C(Nc1ccc(CN2CCOCC2)cc1)c1ccc(-c2ccc(Br)cc2)o1	active: 31.6 µM	–
CCOc1cccc(-c2nnc(SCC(=O)Nc3cc(C)ccc3OC)n2N)c1	inconclusive [inhibitor, partial curve]	–
CCn1c(=O)n(CC(=O)NC2CCCC(C)C2C)c(=O)c2ccccc21 (centres undefined)	inactive	–
COc1cc(-c2cc(C(=O)N3CCN(c4ccccn4)CC3)c3ccccc3n2)cc(OC)c1OC	inactive	–
CCOC(=O)c1[nH]c(C)c(/C(O)=C2\C(=O)C(=O)N(CCN(C)C)C2c2cccc(OC)c2OC)c1C (centres undefined)	inactive	–
c1ccc2c(c1)ccc1nnc(-c3ccc4c(c3)OCO4)n12	inconclusive [inhibitor, partial curve]	–
Clc1ccc(OCc2nc(-c3ccncc3)no2)c(Cl)c1	–	inconclusive: -81.4% [inhibitor]
c1ccc(N2CCN(c3ncnc4sc5c(c34)CCC5)CC2)cc1	inconclusive [inhibitor, partial curve]	–
CN(C)c1ccc(-c2cncnc2Nc2ccc(F)cc2)cc1	inconclusive [inhibitor, single point]	–
O=C(Nc1nc(-c2ccc(S(=O)(=O)N3CCCC3)cc2)cs1)c1ccco1	inconclusive [inhibitor, partial curve]	–
COc1ccc(-c2csc(NC(=O)C3CCCO3)n2)cc1 (centres undefined)	inconclusive [inhibitor, single point]	–
CN(C)c1ccc(C(=O)c2ccc(N(C)C)c(N)c2)cc1N	inconclusive [inhibitor, single point]	–
CCCCC(=O)Nc1ccc(NC(=O)c2ccccc2OC)cn1	inconclusive [inhibitor, single point]	–
N#CC1(O)CCCCC1	inactive	–
Cc1nc(N)c(C#N)c(-c2ccccc2)c1C	inactive	–
COc1ccc(NC(=O)c2cc(-c3cc(C)cc(C)c3O)n[nH]2)cc1Cl	inconclusive [inhibitor, single point]	–
COc1ccccc1N=c1scc(-c2ccc3c(c2)NC(=O)CO3)n1CC1CCCO1 (centres undefined)	inconclusive [inhibitor, single point]	–
COc1ccccc1CNc1nc(-c2ccc3c(c2)OCO3)nc2ccccc12	inconclusive [inhibitor, partial curve]	–
CCN1C(=O)[C@H]2[C@H]3[C@H](O)[C@H](O)C/C(=N/O[C@@H]4O[C@@H](COC(C)=O)[C@@H](OC(C)=O)[C@@H](OC(C)=O)[C@H]4OC(C)=O)[C@H]3CC[C@@H]2C1=O	–	inactive: 17.5% [at 11.5 µM]

Compound	Potency	activity, negative = inhibition
Cc1ccc(C(=O)Oc2ccc3c(c2)ncn3C)cc1	inactive	–
CNc1nnc(CSc2nc(C)cc(C)n2)s1	inconclusive [inhibitor, partial curve]	–
CC(C)n1c(SCC(=O)N2c3ccccc3Sc3ccccc32)nc2c1c(=O)n(C)c(=O)n2C	inactive	–
COc1cccc(-c2ccc3ncnc(NCc4ccccc4OC)c3c2)c1	inconclusive [inhibitor, full curve]	–
COc1ccccc1CNc1ccnc(-c2ccccc2C(F)(F)F)n1	inconclusive [inhibitor, single point]	–
O=C(O)[C@@H]1[C@@H](C(=O)NCc2ccncc2)[C@@H]2C=C[C@@H]1O2	–	inactive: -5.65% [at 11.5 µM]
COc1cc(C(=O)NCc2ccc(OCCN(C)C)cc2)cc(OC)c1OC	inconclusive [inhibitor, full curve, poor fit]	–
CCCn1c(N2CCC(Cc3ccccc3)CC2)nc2c1c(=O)[nH]c(=O)n2C	inconclusive [inhibitor, single point]	–
O=C(O)CCC(=O)OC[C@@H](NC(=O)C(Cl)Cl)C(O)c1ccc([N+](=O)[O-])cc1 (some centres undefined)	inactive	–
COc1ccc2c(c1)OC/C(=C/c1ccc(OC)c(OC)c1)C2=O	active: 15.8 µM	–
COc1ccccc1-c1nc(NCc2cccnc2)c2ccccc2n1	inactive	–
O=C(c1cc(-c2ccccc2)nc2ccccc12)N1CCOCC1	inactive	–
CCOC(=O)C1CCN(C(=O)C2CCN(S(=O)(=O)c3cccc4cccnc34)CC2)CC1	inconclusive [inhibitor, partial curve]	–
Cc1ccc2nc(NC(=O)CCNS(=O)(=O)c3ccc(Br)s3)sc2c1	inconclusive [inhibitor, partial curve, poor fit]	–
Cn1c(-c2ccc(F)cc2)cnc1SCC(=O)Nc1ccccc1N1CCOCC1	active: 31.6 µM	–
c1ccc(Cn2nnnc2C(c2cccnc2)N2CCN(c3ccccc3)CC2)cc1 (centres undefined)	inconclusive [inhibitor, partial curve]	–
CCCCCn1c2nc3ccccc3nc2c2c(=O)n(CC3CCCO3)c(C)nc21 (centres undefined)	inactive	–
Cc1ccc2[nH]c(=O)c(-c3nc4c(C)cccn4c3NCc3ccco3)cc2c1	inconclusive [inhibitor, single point]	–
Cn1c(=O)c2c(nc(NCCCN3CCOCC3)n2Cc2ccc(Cl)cc2Cl)n(C)c1=O	inconclusive [inhibitor, partial curve]	–
C=CCn1c(N)c(C(=O)N2CCN(C)CC2)sc1=S	inconclusive [inhibitor, full curve, poor fit]	–
COc1ccccc1OCCn1cc(C(=O)c2ccco2)c2ccccc21	–	inconclusive: -34.6% [inhibitor]
Cc1nc2ccccc2c(=O)n1NCc1cc(Br)cs1	inactive	–
COc1ccc(S(=O)(=O)NCc2ccco2)c2ccccc12	inconclusive [inhibitor, full curve, poor fit]	–
